Test results: PubChem BioAssay AID1508623 (National Center for Advancing Translational Sciences (NCATS), 2021)
Out of some 48,000 compounds screened, about 450 (0.94%) were called active. Roughly 19% stayed inconclusive and do not appear here. The call rests on the fitted dose curve; in most records, active means well fitted inhibition curve with a large enough effect; inconclusive means small, poorly fitted or top-dose-only effect; inactive means no such curve, though single readings can be large or run the other way. Some of the results follow.

assay: Primary qHTS for Identification of Small Molecule Inhibitors of Huntingtin Promoter Activity; settings: HEK293 HTT promoter firefly luciferase reporter (activity 0% = vehicle and -100% = no light), 24 h; series mostly up to 57.5 µM; activity change, negative = inhibition: at the top concentration; further: nearly all actives have a fitted effect of over 50% in size
Method in brief: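 Firefly luciferase readout (Dual-Glo, 10 min RT) after 24 h, 37 °C compound exposure (final up to 57.5 uM) of HEK293 reporter cells cultured 24 h beforehand; PTC124 at 50 uM final as control inhibitor; activity scaled vehicle 0%, zero RLU -100%.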
Potency means the concentration at half of the fitted maximal effect.

SMILES | activity change, negative = inhibition | Potency
CCOc1ccc(C2c3[nH]c4ccccc4c3CCN2C(=O)CCC2CCCC2)cc1 (stereo unspecified) | inactive: -25.6% | –
CCOC(=O)C1CCCN(S(=O)(=O)c2cc(Br)cc3c2N(C(=O)CC)CC3)C1 (stereo unspecified) | inactive: 9.44% | –
Cc1ccc(COC(=O)c2ccc(-c3nnn(Cc4ccc(C)cc4)n3)cc2)cc1 | inactive: 0.715% | –
Cc1ccn2c(=O)c(NC(=O)c3cccc([N+](=O)[O-])c3C)c(C)nc2c1 | inactive: -26.9% | –
CCN(CCCNC(=O)CN1N=C(c2ccc(C)cc2)CCC1=O)c1ccccc1 | inactive: -28% | –
O=c1cc(-c2ccccc2)nc(SCc2nc(-c3cccc(C(F)(F)F)c3)no2)[nH]1 | inactive: -1.43% | –
CC(=O)C(Sc1nc(-c2ccccc2Cl)nc2c1c(=O)n(C)c(=O)n2C)C(=O)N(C)C (stereo unspecified) | inactive: -9.98% | –
CN1CCC(=C2c3ccccc3CC(=O)c3sccc32)CC1 | inactive | –
Cc1ccc(CNC(=O)CCCn2nc(C)n3c(cc4sccc43)c2=O)cc1 | inactive: -0.103% | –
COc1cccc(C(=O)c2cn(CC(=O)Nc3ccc4c(c3)OCCO4)c3nc(C)ccc3c2=O)c1 | inactive: -14.3% | –
Cc1ccc(NC(=O)NCc2c(-n3cccc3)sc3c2CCCC3)c(Cl)c1 | inactive: -21.1% | –
CCC(=O)N1CCc2cc(S(=O)(=O)NC(CC(C)C)C(=O)NCc3cccc(OC)c3)ccc21 (stereo unspecified) | inactive: -15.9% | –
CCOC(=O)c1cccc(NC(=O)NC2COc3ccccc3C2)c1 (stereo unspecified) | inactive: -17.7% | –
CCN(Cc1ccccc1)S(=O)(=O)c1ccc(F)c(C(=O)Nc2ccc(C(C)C)cc2)c1 | inactive: -24.8% | –
Cc1cccc(C)c1NC(=O)c1cc2sccc2n1Cc1ccc(F)cc1 | inactive: -10.8% | –
COc1cc(NC(=O)C2CCN(S(=O)(=O)c3c(C)noc3/C=C/c3c(C)cc(C)cc3C)CC2)cc(OC)c1 | inactive: -26.4% | –
COc1ccc(OC)c(CNc2ncc(-c3ccc(Cl)cc3)n2C)c1 | inactive: 4.59% | –
Cc1ccc(CNC(=O)c2cn(C)c3ccc(S(=O)(=O)N4CCC(C)CC4)cc3c2=O)cc1 | inactive: -2.48% | –
COc1ccccc1N1CCN(CC(O)COc2cccc3ccccc23)CC1 (stereo unspecified) | inactive | –
Cc1ccccc1CN1C(=O)c2ccccc2Sc2ccc(C(=O)NCCCN3CCOCC3)cc21 | inactive: -12.5% | –
Cc1ccc(Sc2c(C)nn(-c3ccccc3)c2OC(=O)CC(C)C)cc1 | inactive: -10.4% | –
CCOc1ccc(CC(=O)NCc2ccc3c(c2)CCN3C(=O)c2ccc(F)cc2)cc1OCC | inactive: -22.2% | –
Cc1ccc(NC(=O)CN2C(=O)c3ccccc3Sc3ncccc32)c(C)c1 | inactive: -25.2% | –
Cc1ccc(NC(=O)c2sc3nc[nH]c(=O)c3c2C)cc1C | inactive: 85% | –

SMILES | activity change, negative = inhibition | Potency
CC(=O)c1ccc(NC(=O)c2nn(C)c3c2COc2ccccc2-3)cc1 | inactive: 2.73% | –
CCn1c(SCC(=O)Nc2cc(Cl)ccc2OC)nc2c([nH]c3ccccc32)c1=O | inactive: 1.85% | –
CCOc1ccccc1NC(=O)N1CCC(N2CCN(Cc3ccccc3)C(=O)C2=O)CC1 | inactive: -11.3% | –
CCOC(=O)c1c(NC(=O)c2cc(-c3ccc(Br)cc3)on2)sc(C)c1C | inactive: -2.26% | –
CCc1cc2c(-c3ccccc3)cc(=O)oc2c2c1OCN(Cc1ccc(C)cc1)C2 | inactive: -13.5% | –
O=c1c2ccccc2nc(-c2ccc(Cl)cc2)n1CCCCOc1ccc(F)cc1 | inactive: -8.78% | –
COC(=O)c1ccc(NC(=O)CCOc2ccccc2)cc1 | inactive: 40.3% | –
CC(COc1ccccc1)NN (stereo unspecified) | inactive: -2.9% | –
CCOc1ccc(CN2C(=O)c3ccccc3Sc3ccc(C(=O)NC4CCC(C)CC4)cc32)cc1 (stereo unspecified) | inactive: -33% | –
Cc1ccc(N(CC(=O)NCc2ccc(OC(C)C)cc2)S(=O)(=O)N(C)C)cc1 | inactive: -3.45% | –
CCOC(=O)c1ccccc1NC(=O)CCc1c(C)nc2c(c1C)c(=O)n(C)c(=O)n2C | inactive: -2.84% | –
COc1ccc(CNC(=O)CCS(=O)(=O)c2cc3c4c(c2)CCN4C(=O)CC3)cc1 | inactive: -12.2% | –
COC(=O)c1ccc(NC(=O)c2cc3cc4ccc(OC)c(Cl)c4nc3s2)cc1 | inactive: 0% | –
Cn1cc(C(=O)N2CCN(c3ccccc3)CC2)c(=O)c2cc(S(=O)(=O)N3CCCC3)ccc21 | inactive: -9.63% | –
O=C(NC1CC(=O)N(c2ccc(F)cc2)C1)C(c1ccccc1)c1ccccc1 (stereo unspecified) | inactive: -6.84% | –
COc1ccc(-c2noc(CSc3nnc(-c4ccncc4)n3-c3ccc(OC)cc3)n2)cc1 | inactive: -29.9% | –
COCCNC(=O)c1ccc(NC(=O)N2CCCCc3ccccc32)cc1 | inactive: -15.3% | –
CCOc1ccc(CNC(=O)CN2C(=O)CSc3c2c(C)nn3-c2ccccc2)cc1 | inactive: -4.38% | –
O=C(Nc1c(O)c2ccccc2oc1=O)c1ccccc1Cl | inactive: 34.1% | –
COc1ccc(NC(=O)C(=O)NCCc2csc3nc(-c4ccccc4C)nn23)cc1 | inactive: -6.71% | –
CCCC(=O)Nc1nnc(S(=O)(=O)N(C)c2ccccc2)s1 | inactive: -12.3% | –
COc1ccccc1CCNC(=O)C1CCN(c2nc3ccccc3nc2C(F)(F)F)CC1 | inactive: 6.6% | –
COC(=O)c1ccccc1NC(=O)CSc1c2c(nc3ccc(Cl)cc13)CCCC2 | inactive: -14.9% | –
COc1cccc(CNC(=O)C2CCCN(c3nnc(-n4c(C)ccc4C)s3)C2)c1 (stereo unspecified) | inactive: -22.9% | –

SMILES | activity change, negative = inhibition | Potency
CC1=C[C@@H]2[C@@H]([C@@H](O)C[C@@]3(C)[C@H]2C[C@@H](C)[C@]3(O)C(=O)CO)[C@@]2(C)Cc3cnn(-c4ccccc4)c3C=C12 | inactive: -13.9% | –
CCCN(CCC)C(=O)C(CCC(=O)O)NC(=O)c1ccccc1 (stereo unspecified) | inactive: 2.89% | –
O=C(NCC(c1cccnc1)N1CCN(Cc2ccccc2)CC1)C(=O)Nc1ccc(F)cc1 (stereo unspecified) | inactive: 2.6% | –
CC(C)c1ccc(NC(=O)CN(C)S(=O)(=O)c2ccc3c(c2)n(C)c(=O)c(=O)n3C)cc1 | inactive: -18.2% | –
CCOC(=O)N1CCN(CCC(=O)Nc2cc(C)ccc2C)CC1 | inactive: -15.7% | –
CCn1cnc2cc(NCc3ccc(N(C)C)cc3)ccc21 | inactive: 3.48% | –
CCCCCCCCCCCCOS(=O)(=O)O | inactive: 11.5% | –
CCn1cc2nc(SCC(=O)Nc3cccc(Cl)c3C)n(Cc3ccc(Cl)cc3)c(=O)c2n1 | inactive: -14.1% | –
CCOc1ccc(C(=O)Nc2ccc3nc(SCC(=O)N4CCCC4)sc3c2)cc1 | inactive: 8.58% | –
CCc1ccc(CNC(=O)c2cnc3sc(N4CCCCCC4)nn3c2=O)cc1 | inactive: 9.97% | –
CCOC(=O)c1ccc(NC(=O)CN2C(=O)c3cccnc3Sc3ccccc32)cc1 | inactive: 21.6% | –
Cc1ccccc1Cn1c(=O)n(CCCCCC(=O)NCc2ccc3c(c2)OCO3)c(=O)c2sccc21 | inactive: -5.34% | –
O=C(Cn1ncc2c3ccccc3n(Cc3cccc(Cl)c3)c2c1=O)NCCC1=CCCCC1 | inactive: -1.44% | –
CCN(CC)c1ccc(CNS(=O)(=O)c2cc3c(cc2C)NC(=O)CO3)cc1 | inactive: -17.5% | –
CCOc1ccc(NC(=O)Nc2c[nH]c(=O)[nH]c2=O)cc1 | inactive: -7.95% | –
Cn1c(SCc2ccccc2Cl)nc(=O)c2c1NC(=O)CC2c1cc(F)ccc1F (stereo unspecified) | inactive: -15.8% | –
CCOC(=O)c1ccccc1NC(=O)Cn1c(=O)n(-c2ccc(CC)cc2)c(=O)c2c(C)c(C(=O)N(C)C)sc21 | inactive: -14.5% | –
CCOc1ccccc1CNC(=O)c1ccc2c(c1)nc1n2CCC(C)C1 (stereo unspecified) | inactive: 6.32% | –
CC(=O)c1ccc(N2C(=O)Nc3ccccc3S2(=O)=O)cc1 | inactive: -9.26% | –
CC(C)Sc1nc2sc3c(c2c(=O)n1-c1ccccc1)CCCC3 | inactive: -19.4% | –
Cc1ccc(N2CC(NC(=O)c3ccccc3Br)CC2=O)cc1 (stereo unspecified) | inactive: -22.6% | –
Nc1ncc(S(=O)(=O)Nc2ccc(OC(F)(F)F)cc2)cn1 | inactive: -10.3% | –
CCc1ccc(NS(=O)(=O)c2c(-c3ccccc3)csc2C(=O)OC)cc1 | inactive: -28.5% | –
Cc1cc(NCc2ccc(Cl)cc2)n2cnnc2n1 | – | active: 25.1 µM

SMILES | activity change, negative = inhibition | Potency
COc1ccccc1N(CC(=O)Nc1cc(C)cc(C)c1)S(C)(=O)=O | inactive: -0.876% | –
CN(Cc1ccco1)S(=O)(=O)c1nnc(NC(=O)c2ccccc2)s1 | inactive: 38.2% | –
Cc1cccc(-c2noc(-c3ccc(NCc4cccnc4)c([N+](=O)[O-])c3)n2)c1 | inactive: 21.8% | –
CCc1cccc(NC(=O)Cn2ccn3nc(-c4ccc(OC)c(OC)c4)cc3c2=O)c1 | inactive: -18.7% | –
Cc1ccccc1NC(=O)Cn1cc(S(=O)(=O)N2CCCC2)c(S(=O)(=O)N2CCCC2)c1 | inactive: 13.8% [at 11.5 µM] | –
CN(C)CC(C)(C)CNc1nn2c(-c3ccccc3)nnc2cc1C1CCC1 | inactive: -21.9% | –
CC1=C(C(=O)Nc2ccccc2)C(c2ccccn2)n2nc(SCc3ccccc3Cl)nc2N1 (stereo unspecified) | inactive: -3.06% | –
CCOc1ccc(NC(=O)c2nnn(-c3ccc(F)c(Cl)c3)c2C)cc1 | inactive: -9.69% | –
CCC(=O)Nc1cccc(OCc2cc(=O)n3cc(C)ccc3n2)c1 | inactive: 69.9% | –
COC(=O)c1ccc(Oc2nc3c(c(=O)n(C)c(=O)n3C)n2Cc2ccc(Cl)c(Cl)c2)cc1 | inactive: -12.4% | –
COc1ccc(NC(=O)c2oc3ccccc3c2NC(=O)C23CC4CC(CC(C4)C2)C3)cc1 | inactive: -15.4% | –
COc1ccc(S(=O)(=O)N(CC(=O)Nc2ccc3c(c2)OCO3)c2ccc(C)cc2)cc1 | inactive: -18.4% | –
O=C(NCc1ccccc1Cl)c1ccc(NC(=O)N2CCSc3ccccc32)cc1 | inactive: -21% | –
COc1cc(OC)cc(C(=O)Nc2ccc3c(c2)n(C)c(=O)c(=O)n3C)c1 | inactive: 0.346% | –
Cc1ccc(OCc2cc(=O)n3c4c(sc3n2)CCCC4)cc1C | inactive: 0.0634% | –
Cn1cc(S(=O)(=O)N2CCCCC2)cc1C(=O)Nc1ccc(OC(F)(F)F)cc1 | inactive: -23.1% | –
O=C(Cn1cc(S(=O)(=O)c2ccccc2)c(=O)c2cc3c(cc21)OCO3)Nc1ccccc1 | inactive: -25.7% | –
Cc1ccc(S(=O)(=O)C(CNC(=O)c2ccc(C(F)(F)F)cc2)c2ccco2)cc1 (stereo unspecified) | inactive: -24.5% | –
Cc1noc(-c2ccc(-c3noc(-c4cccc(Cl)c4)n3)cc2)n1 | inactive: -7.3% | –
CCc1ccc2occ(CC(=O)Nc3sc4c(c3C(=O)NCCOC)CCCC4)c2c1 | inactive: -30.4% | –
N=C(N)c1ccc(OCCCOc2ccc(C(=N)N)cc2)cc1 | inactive: 4.34% | –
Cc1nc2nc(SCC(=O)NC3CCC(C)CC3)nn2c(C)c1Cc1ccccc1Cl (stereo unspecified) | inactive: 2.74% | –
Cc1nc2c(-c3ccccc3)c(C)nn2c(C)c1CCC(=O)NCc1ccccc1 | inactive: -19.6% | –
Cc1ccc(S(=O)(=O)n2nc(-c3ccco3)nc2NCc2ccc(N(C)C)cc2)cc1 | inactive: -0.106% | –
